± gives the standard deviation of the averaged measurements. This is one part of the list.
Tested on: PfAP2-LT AP2 domain (GST-tagged)
Experiment: gcPBM binding intensity (ln(normalized median fluorescence intensity)); higher = stronger DNA binding
Procedure, shortened: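 Alexa488 anti-GST antibody, scanned at 488 nm, detected GST-tagged P. falciparum DNA-binding domains that had been expressed in E. coli and incubated for 1 h on an Agilent 4 × 180k array. The array carried primer-extended double-stranded 36-bp intergenic genomic probes and negative controls. Binding intensity is the highest Masliner-normalised natural-log median intensity across replicate spots of either orientation of each probe.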

Sequence | gcPBM binding intensity (ln)
TATTATTCTATACATTGTACATATTTTATAGTATGT [XGTACX_site73] | 8.94 ± 0.48
AAAAAAAAAAAATAGACACACATATTATATATATAT [CACACA_site1419] | 8.99 ± 0.42
ATGTGTTGGGAAAAGGCATGCACTTTTTTTTTTTTT [TGCATGCA_site707] | 8.85 ± 0.52
TTTTCCTTATATTATGCATGCAGGGTTTGACATTAT [TGCATGCA_site826] | 9.12 ± 0.32
TGATAACCTCACAAATGTACGTACGGGGCTAGCATT [XGTACX_site4157] | 8.99 ± 0.31
ATATCTATAATAAATACACACATTTATATAGATAAA [CACACA_site7518] | 8.79 ± 0.35
AACAGCATTATTTCTTATTTTTTTTTTGATATATTT [GTGCAC_negctrl_site114] | 8.61 ± 0.47
GTTATATTATTCATACGTACCTATATTTCTATTAAC [XGTACX_site3447] | 9.03 ± 0.46
AAACTTGACAGACACACACACACATATATAAAAAAA [CACACA_site757] | 9.8 ± 0.35
CTTTCCTATTTGACACGTACGAAATTTTACATAAAA [XGTACX_site6689] | 8.51 ± 0.39
AAATATATATACACATATATATATATATATATATAT [CACACA_negctrl_site1742] | 9.72 ± 0.19
TATGAAATATCGTGCACACACGAATAATATAAGAAT [CACACA_site4842] | 9.34 ± 0.4
AAAATAAAAAATATAACACACAATAAATATTTATAT [CACACA_site6986] | 8.93 ± 0.4
ACATGAAATGTTTAAAGTACATATATAAATTTTTTT [XGTACX_site4519] | 8.5 ± 0.44
AAATGTGAAGTGAATACACACCTAATAAATATAACA [CACACA_site5727] | 9.01 ± 0.42
TACTGATCTTTCTAGGTGCGCTGCTACCATTATCGT [GTGCAC_site9538] | 8.99 ± 0.49
ATATATAGATAATCAAGTACATAACAAGATATAAGA [XGTACX_site2186] | 8.99 ± 0.51
TATATTTAATTATTATGTACTTATAATTTTTGAAAG [XGTACX_site8548] | 8.42 ± 0.35
TATGTATTTATCCACTTACATTTTTACTTTTCCATT [CACACA_negctrl_site1141] | 8.89 ± 0.51
TATATATATAATATTACACACATATATTTATATTTT [CACACA_site3460] | 8.85 ± 0.49
TATGGTATATACAACACACACACATATGTATAAATA [CACACA_site6562] | 9.64 ± 0.33
ATTTATACATGCTAATGTACTTATTTCACCTATATC [XGTACX_site3120] | 9.04 ± 0.46

Sequence | gcPBM binding intensity (ln)
CAAGTATTAATTATGTGTACATATATATATATATAT [XGTACX_site5311] | 9.74 ± 0.22
TTAATATTGTATTTCACACATAATTTAATATACTCA [CACACA_site5678] | 8.66 ± 0.49
TATAATGAGGATAATAGTACATATGAATACAAAAAA [XGTACX_site3665] | 8.93 ± 0.52
TACACAAGCAGACACACACACATATAGATTTATATA [CACACA_site6715] | 9.65 ± 0.35
GCCATAAAAATATATACACACATAAAAAAAAATTAT [CACACA_site1176] | 9.13 ± 0.46
TCTTAAGGAAAAGAGTGTACAGAAATTTTTATTAAC [XGTACX_site6139] | 8.55 ± 0.5
AATTATATTACAAACTGTACATATATAATTTGTCCA [XGTACX_site6009] | 8.68 ± 0.42
ATCCGAGTGTGAAATACACACATGATAATGTGAATG [CACACA_site919] | 9.29 ± 0.4
TTAAATAAGTAATTATGTACATATAATATTCTTTAT [XGTACX_site5280] | 8.6 ± 0.42
TATAGGAATATATGGTGTACCTATAAATCTGACATA [XGTACX_site8111] | 8.73 ± 0.42
ATTTATATATTTATACGTACTTATATATTGTTACAT [XGTACX_site6254] | 9.21 ± 0.46
AAAAATAAAAATTGCACACTAAAAAATTACGCACGA [CACACA_site3418] | 8.94 ± 0.35
TAGAAAATATAAAAATGTACGTAAATAAAATGTGCA [XGTACX_site3459] | 9.01 ± 0.5
TTCAATGCATGTCCATGTACATATAAAAAAAAATAC [XGTACX_site1597] | 8.71 ± 0.49
TTTTTCTTTCTTTCTTTTTTAATATTACAAATGTAT [XGTACX_negctrl_site267] | 8.49 ± 0.59
TTATTAAAACAAAATGTACACACATATAATTTAATG [CACACA_site8193] | 8.78 ± 0.45
CACCCTTTACACAAGGTGCATACTTTATTATATTTT [GTGCAC_site9778] | 8.9 ± 0.46
TGTTGGCAGGTGAATGCATGCATATAAGTCTATCTG [TGCATGCA_site781] | 9.06 ± 0.47
AAAGTAGAATATCCCCTACACACCCAAATAATTTAC [CACACA_site1255] | 9.53 ± 0.16
AATATTTTAATGCACACACACAAAAAAAAAAAAAAA [CACACA_site7374] | 9.18 ± 0.33
AATCCTTTACGACACACACACAAAAAAAAAAAAAAA [CACACA_site6449] | 9.27 ± 0.44
TTAAAAAAATTAATATGTACATATATTTATATATAT [XGTACX_site5317] | 8.51 ± 0.49

Sequence | gcPBM binding intensity (ln)
TATATATTTTATTTATGTACGAAAATAAATTAAATT [XGTACX_site3628] | 8.32 ± 0.34
TATTAAAAAGAGGTGACACACACATATAAATCTAAA [CACACA_site9243] | 9.12 ± 0.42
ACATCATAGAAAAATTGATATATATATATATATATA [CACACA_negctrl_site130] | 10.01 ± 0.035
TCCACAAAGCATGTAACACACAACATATAAGACATA [CACACA_site972] | 9.22 ± 0.47
AACCACATACCTATAACACACATATACAATATAGAT [CACACA_site7023] | 9.35 ± 0.42
ATTGTAATAAATTGTAGTACATGTAAGGTTTTATTT [XGTACX_site1005] | 9.09 ± 0.36
ATAACTTATTTTTAAAGTACATTATTATATATATAT [XGTACX_site1620] | 8.68 ± 0.49
TTAAGAATATTTTCATGTACTCATTTTTTTTGTTAT [XGTACX_site1814] | 8.69 ± 0.45
AATAAAAATATATCCACACACATATATAAATATGTA [CACACA_site6415] | 9.22 ± 0.32
ATTACATATGTGAGTTGTACTATAAATATATAATAT [XGTACX_site3718] | 8.81 ± 0.47
AAACTTATGTTTACATGTACAGAACTTTATATTATG [XGTACX_site4843] | 8.85 ± 0.42
TATTATATATATAGGTGTACGCATTTGTCCTTTATA [XGTACX_site1385] | 8.93 ± 0.43
TCGAACATTAACATAACACACATATAGATTTATATA [CACACA_site7380] | 8.98 ± 0.38
TTATTCTTTAACTAAAATTATATATATATATTATAC [CACACA_negctrl_site1597] | 8.56 ± 0.5
TTGTATGCTTCCCGACTACATTATGCCATAAATGTA [TGCATGCA_negctrl_site136] | 8.81 ± 0.28
TAAACATTTTTAATTTTGTAAAATTTTAAATAAAAA [XGTACX_negctrl_site612] | 7.89 ± 0.42
TTTTTTATTGTGAAACTGATATTATATTTTTTATAA [GTGCAC_negctrl_site559] | 8.37 ± 0.49
ACAAACAAAGAAAGAACACACATACACAAGATACCT [CACACA_site7353] | 9.54 ± 0.26
TGAATATTTTATGATTGTACATATTATAATAAACAT [XGTACX_site6113] | 8.59 ± 0.4
AAAACAAACATTACACGTACAAAACAAGTTATAGAC [XGTACX_site6320] | 9.26 ± 0.51
TTTTTGATATTAAAGGGTACATTATTTACAAAAAAA [XGTACX_site5284] | 8.22 ± 0.41
CTGCCTTCCATACCCACACACTTCCCATATATTTTA [CACACA_site5491] | 9.2 ± 0.44

Sequence | gcPBM binding intensity (ln)
ATGCTTTTTTATAAAAGTACATAAAGTTTTTACACT [XGTACX_site7307] | 8.48 ± 0.47
GATCCTGGTTCTTGTGGTACTTGTTCATTTGTTATA [XGTACX_site7164] | 9.21 ± 0.41
ATTCTTTTATTTAGTAGTACATTTGTATTTTATTCA [XGTACX_site5790] | 8.91 ± 0.45
TAAAAAAATTTAACATGTACAAATATTGAAAAGGAC [XGTACX_site7608] | 8.95 ± 0.41
ATTAAAAAAGAATATACACACCAAAACTGTTTGTTA [CACACA_site4687] | 8.66 ± 0.37
TACAATTCGTAATACACACACATATATATATATATT [CACACA_site3751] | 9.485 ± 0.092
GAAGAATAAATATGCACACATGCATATATTTTTACA [CACACA_site3459] | 8.88 ± 0.37
AGAAAAAAAAAAAAAAAAAAAAAATTGAATATATAT [TGCATGCA_negctrl_site55] | 8.51 ± 0.41
TTTATTATCTTATTCACACACATATATATATATATA [CACACA_site2869] | 9.54 ± 0.15
ATATATTTTTACCATACACACATATAACAAATATAT [CACACA_site7706] | 9.01 ± 0.4
TGTTTTTATAATATTAGTACATAATATACATAATTC [XGTACX_site2787] | 8.55 ± 0.41
AATAAATTAATTTTGGGTACATATATATATATATAT [XGTACX_site3807] | 9.6 ± 0.31
AAATATATATAAATGAGTACTTATGGTAACATATAT [XGTACX_site6362] | 8.84 ± 0.42
AGAGCATAATAAAACACACACATACATACCTATATA [CACACA_site6566] | 9.68 ± 0.38
TTCCACATTTTACAGACACACACAATTTATATTACG [CACACA_site8572] | 9.16 ± 0.34
ATAAATAATTATAATTGTACACATATATATATATAC [XGTACX_site3998] | 8.91 ± 0.33
AAAAAATATTGAAGTACACACATTATGAACTTTTTT [CACACA_site1733] | 8.78 ± 0.42
TATATATATATATATACATGCATATATATAATATAT [TGCATGCA_site763] | 9.37 ± 0.014
TTAAGATCCTAAAAAACACACAATTGTGAATAATAA [CACACA_site3872] | 8.86 ± 0.39
GTAAGTTGTGCATTCACACACATATATATATATATA [CACACA_site3303] | 9.94 ± 0.11
TGATTAAATAAATATATATATTTATATATTATACAG [CACACA_negctrl_site1596] | 8.34 ± 0.45
TATATATATATATATGTGCACTGGACATATTTTTAT [GTGCAC_site9721] | 9.76 ± 0.2

Reference: the supplement of paper PMC11417369
